Measured values: PubChem BioAssay (NCI)
Values joined by “and” are separate entries in the source; they are usually repeats but may differ in a detail not shown here. Equal values may be shown once.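 Grown in 96-well plates, cells were treated for 48 hours with each compound at five concentrations. Insufficient inhibition: endpoint recorded as highest concentration tested. The concentration for 50% growth inhibition is given as GI50. At the TGI there is no net growth.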 Active and inactive are the calls of the source.

Key:
Assay in all cases: NCI tumour cell line growth inhibition, 48 h
OVCAR-5 ovarian = test system: OVCAR-5 ovarian
M14 melanoma = test system: M14 melanoma
HCT-116 colon = test system: HCT-116 colon
HL-60(TB) leukemia = test system: HL-60(TB) leukemia
U251 CNS = test system: U251 CNS
MCF7 breast = test system: MCF7 breast
RXF 393 renal = test system: RXF 393 renal
NCI-H522 lung = test system: NCI-H522 lung
HOP-62 NSCLC = test system: HOP-62 NSCLC
DU-145 prostate = test system: DU-145 prostate
SK-MEL-28 melanoma = test system: SK-MEL-28 melanoma
NCI/ADR-RES ovarian = test system: NCI/ADR-RES ovarian
SF-295 CNS = test system: SF-295 CNS
SW-620 colon = test system: SW-620 colon
CAKI-1 renal = test system: CAKI-1 renal
SNB-75 CNS = test system: SNB-75 CNS
UO-31 renal = test system: UO-31 renal
786-0 renal = test system: 786-0 renal
K-562 leukemia = test system: K-562 leukemia
NCI-H226 lung = test system: NCI-H226 lung
HCC-2998 colon = test system: HCC-2998 colon
OVCAR-3 ovarian = test system: OVCAR-3 ovarian
HOP-92 NSCLC = test system: HOP-92 NSCLC
MOLT-4 leukemia = test system: MOLT-4 leukemia
UACC-257 melanoma = test system: UACC-257 melanoma
SN12C renal = test system: SN12C renal
SF-268 CNS = test system: SF-268 CNS
UACC-62 melanoma = test system: UACC-62 melanoma
SNB-19 CNS = test system: SNB-19 CNS
RPMI-8226 leukemia = test system: RPMI-8226 leukemia
MDA-MB-435 = test system: MDA-MB-435
TK-10 renal = test system: TK-10 renal
A498 renal = test system: A498 renal
SK-MEL-5 melanoma = test system: SK-MEL-5 melanoma
A549 NSCLC = test system: A549 NSCLC
ACHN renal = test system: ACHN renal
PC-3 prostate = test system: PC-3 prostate

SMILES: CCCC(=O)Oc1cc2c(c(OC)c1OC)-c1ccc(SC)c(=O)cc1[C@@H](NC(C)=O)CC2
- GI50 (OVCAR-5 ovarian): > 100 µM
- TGI (OVCAR-5 ovarian): > 100 µM
- TGI (M14 melanoma): > 100 µM
- TGI (HCT-116 colon): > 100 µM
- TGI (HL-60(TB) leukemia): 0.00771 µM
- TGI (U251 CNS): 1.26 µM
- TGI (MCF7 breast): > 100 µM
- TGI (RXF 393 renal): 7.95 µM
- TGI (NCI-H522 lung): 0.00835 µM
- TGI (HOP-62 NSCLC): > 100 µM
- TGI (DU-145 prostate): > 100 µM
- TGI (SK-MEL-28 melanoma): > 100 µM
- GI50 (NCI/ADR-RES ovarian): inactive
- TGI (SF-295 CNS): 0.573 µM
- TGI (SW-620 colon): > 100 µM
- TGI (CAKI-1 renal): > 100 µM
- TGI (SNB-75 CNS): > 100 µM
- TGI (UO-31 renal): > 100 µM
- TGI (786-0 renal): > 100 µM
- TGI (K-562 leukemia): > 100 µM
- TGI (NCI-H226 lung): 0.0166 µM
- TGI (HCC-2998 colon): 0.316 µM
- TGI (OVCAR-3 ovarian): 0.00649 µM and 0.0295 µM
- TGI (HOP-92 NSCLC): 0.945 µM
- TGI (MOLT-4 leukemia): 0.0169 µM
- TGI (UACC-257 melanoma): > 100 µM
- TGI (SN12C renal): > 100 µM
- TGI (SF-268 CNS): > 100 µM
- TGI (UACC-62 melanoma): > 100 µM
- TGI (SNB-19 CNS): > 100 µM
- TGI (RPMI-8226 leukemia): 13.2 µM
- TGI (MDA-MB-435): 0.00477 µM
- TGI (TK-10 renal): > 100 µM
- TGI (A498 renal): 0.822 µM
- TGI (SK-MEL-5 melanoma): 0.0201 µM and 0.0491 µM
- TGI (A549 NSCLC): > 100 µM
- TGI (ACHN renal): > 100 µM
- TGI (PC-3 prostate): > 100 µM
